{"source": "a collection of fitness landscapes (doi:10.1016/j.celrep.2020.107928)", "parents": {"B1": {"name": "Caulobacter ParB omega fusion; a variant is named by its letters at X, in order, B8GW30 (parent)", "chain": "MESVVVGEPGMSEGRRGLGRGLSALLGEVDAAPAQAPGEQLGGSREAPIEILQRNPDQPRRTFREEDLEDLSNSIREKGVLQPILVRPSPDTAGEYQIVAGERAWRAAQRAGLKTVPIMVRELDDLAVLEIGIIENVQRADLNVLEEALSYKVLMEKFERTQENIAQTIGKSXSHVANXMRLLXLPDEVQSYLVSGELTAXHARAIAAAADPVALAKQIIEGGLSVRETEALARKAPNLSAGKSKGGRPPRVKDTDTQALESDLSSVLGLDVSIDHRGSTGTLTITYATLEQLDDLCNRLTRGI"}}, "note": "Whole data set: some 81,000 sequences, median “one-hybrid fitness for binding NBS DNA” near -0.1, cut for the highest 2% near 0.36. The list shows a part of the results."}
{"variants_of": "B1", "test": "one-hybrid fitness for binding NBS DNA (the Noc-binding site; scaled: cognate 1, non-cognate 0); higher = stronger binding", "settings": "with NBS DNA site", "outline": "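Fitness here means the log change in variant-to-wild-type read ratio between plasmids sequenced before and after selection. That scale was set so cognate equals 1 and non-cognate equals 0. The selection was a bacterial one-hybrid screen of Caulobacter ParB libraries, four specificity codons randomised, in E. coli USO carrying a HIS3 reporter with the site 19 bp from the promoter, grown 48 hours at 37°C on M9-minus-histidine with 0.1 mM IPTG and 5 mM 3-AT.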"}
{"variant": "DTMA", "one-hybrid fitness for binding NBS DNA": "≤ 0.2"}
{"variant": "PLVF", "one-hybrid fitness for binding NBS DNA": "≤ 0.2"}
{"variant": "TSED", "one-hybrid fitness for binding NBS DNA": "≤ 0.2"}
{"variant": "TWLN", "one-hybrid fitness for binding NBS DNA": "≤ 0.2"}
{"variant": "RSHR", "one-hybrid fitness for binding NBS DNA": 0.476}
{"variant": "RTAN", "one-hybrid fitness for binding NBS DNA": "≤ 0.2"}
{"variant": "QKKE", "one-hybrid fitness for binding NBS DNA": 0.283}
{"variant": "ENPT", "one-hybrid fitness for binding NBS DNA": "≤ 0.2"}
{"variant": "HALK", "one-hybrid fitness for binding NBS DNA": "≤ 0.2"}
{"variant": "ECYG", "one-hybrid fitness for binding NBS DNA": "≤ 0.2"}
{"variant": "HKAV", "one-hybrid fitness for binding NBS DNA": "≤ 0.2"}
{"variant": "SPIG", "one-hybrid fitness for binding NBS DNA": "≤ 0.2"}
{"variant": "NDYL", "one-hybrid fitness for binding NBS DNA": "≤ 0.2"}
{"variant": "QCNI", "one-hybrid fitness for binding NBS DNA": "≤ 0.2"}
{"variant": "NNKV", "one-hybrid fitness for binding NBS DNA": "≤ 0.2"}
{"variant": "VSGV", "one-hybrid fitness for binding NBS DNA": "≤ 0.2"}
{"variant": "AHRE", "one-hybrid fitness for binding NBS DNA": "≤ 0.2"}
{"variant": "GSKT", "one-hybrid fitness for binding NBS DNA": "≤ 0.2"}
{"variant": "EAIR", "one-hybrid fitness for binding NBS DNA": "≤ 0.2"}
{"variant": "PQMS", "one-hybrid fitness for binding NBS DNA": "≤ 0.2"}
{"variant": "ARPG", "one-hybrid fitness for binding NBS DNA": "≤ 0.2"}
{"variant": "NSIT", "one-hybrid fitness for binding NBS DNA": "≤ 0.2"}
{"variant": "VRSL", "one-hybrid fitness for binding NBS DNA": "≤ 0.2"}
{"variant": "RTYH", "one-hybrid fitness for binding NBS DNA": "≤ 0.2"}
{"variant": "RTKT", "one-hybrid fitness for binding NBS DNA": 0.724}
{"variant": "FNYT", "one-hybrid fitness for binding NBS DNA": "≤ 0.2"}
{"variant": "FRPA", "one-hybrid fitness for binding NBS DNA": "≤ 0.2"}
{"variant": "VRTY", "one-hybrid fitness for binding NBS DNA": "≤ 0.2"}
{"variant": "VPSP", "one-hybrid fitness for binding NBS DNA": "≤ 0.2"}
{"variant": "GLQI", "one-hybrid fitness for binding NBS DNA": "≤ 0.2"}
{"variant": "KKYR", "one-hybrid fitness for binding NBS DNA": "≤ 0.2"}
{"variant": "RHST", "one-hybrid fitness for binding NBS DNA": 0.435}
{"variant": "IRAA", "one-hybrid fitness for binding NBS DNA": "≤ 0.2"}
{"variant": "PHPA", "one-hybrid fitness for binding NBS DNA": "≤ 0.2"}
{"variant": "DAPF", "one-hybrid fitness for binding NBS DNA": "≤ 0.2"}
{"variant": "GHKE", "one-hybrid fitness for binding NBS DNA": "≤ 0.2"}
{"variant": "PCWV", "one-hybrid fitness for binding NBS DNA": "≤ 0.2"}
{"variant": "TGYG", "one-hybrid fitness for binding NBS DNA": "≤ 0.2"}
{"variant": "IKFI", "one-hybrid fitness for binding NBS DNA": "≤ 0.2"}
{"variant": "DIAF", "one-hybrid fitness for binding NBS DNA": "≤ 0.2"}
{"variant": "TGNF", "one-hybrid fitness for binding NBS DNA": "≤ 0.2"}
{"variant": "NHIS", "one-hybrid fitness for binding NBS DNA": "≤ 0.2"}
{"variant": "KWKS", "one-hybrid fitness for binding NBS DNA": "≤ 0.2"}
{"variant": "KVAT", "one-hybrid fitness for binding NBS DNA": "≤ 0.2"}
{"variant": "HSVT", "one-hybrid fitness for binding NBS DNA": "≤ 0.2"}
{"variant": "MATF", "one-hybrid fitness for binding NBS DNA": "≤ 0.2"}
{"variant": "NIFR", "one-hybrid fitness for binding NBS DNA": "≤ 0.2"}
{"variant": "SLEL", "one-hybrid fitness for binding NBS DNA": "≤ 0.2"}
{"variant": "TEDN", "one-hybrid fitness for binding NBS DNA": "≤ 0.2"}
{"variant": "PWKC", "one-hybrid fitness for binding NBS DNA": "≤ 0.2"}
{"variant": "PPTW", "one-hybrid fitness for binding NBS DNA": "≤ 0.2"}
{"variant": "AEMW", "one-hybrid fitness for binding NBS DNA": "≤ 0.2"}
{"variant": "SFLE", "one-hybrid fitness for binding NBS DNA": "≤ 0.2"}
{"variant": "LMQR", "one-hybrid fitness for binding NBS DNA": "≤ 0.2"}
{"variant": "VCRI", "one-hybrid fitness for binding NBS DNA": "≤ 0.2"}
{"variant": "RIYF", "one-hybrid fitness for binding NBS DNA": "≤ 0.2"}
{"variant": "PWKH", "one-hybrid fitness for binding NBS DNA": "≤ 0.2"}
{"variant": "RRCY", "one-hybrid fitness for binding NBS DNA": 0.348}
{"variant": "HTKN", "one-hybrid fitness for binding NBS DNA": "≤ 0.2"}
{"variant": "PVII", "one-hybrid fitness for binding NBS DNA": "≤ 0.2"}
{"variant": "NTHL", "one-hybrid fitness for binding NBS DNA": "≤ 0.2"}
{"variant": "GVHC", "one-hybrid fitness for binding NBS DNA": "≤ 0.2"}
{"variant": "ESQR", "one-hybrid fitness for binding NBS DNA": "≤ 0.2"}
{"variant": "DRSD", "one-hybrid fitness for binding NBS DNA": "≤ 0.2"}
{"variant": "KLVC", "one-hybrid fitness for binding NBS DNA": "≤ 0.2"}
{"variant": "SVKR", "one-hybrid fitness for binding NBS DNA": "≤ 0.2"}
{"variant": "VAIN", "one-hybrid fitness for binding NBS DNA": "≤ 0.2"}
{"variant": "RLHG", "one-hybrid fitness for binding NBS DNA": "≤ 0.2"}
{"variant": "AIVN", "one-hybrid fitness for binding NBS DNA": "≤ 0.2"}
{"variant": "VWTM", "one-hybrid fitness for binding NBS DNA": "≤ 0.2"}
{"variant": "NMFK", "one-hybrid fitness for binding NBS DNA": "≤ 0.2"}
{"variant": "DALV", "one-hybrid fitness for binding NBS DNA": "≤ 0.2"}
{"variant": "PSQS", "one-hybrid fitness for binding NBS DNA": "≤ 0.2"}
{"variant": "FIHC", "one-hybrid fitness for binding NBS DNA": "≤ 0.2"}
{"variant": "TCMV", "one-hybrid fitness for binding NBS DNA": "≤ 0.2"}
{"variant": "PNWP", "one-hybrid fitness for binding NBS DNA": "≤ 0.2"}
{"variant": "IGPE", "one-hybrid fitness for binding NBS DNA": "≤ 0.2"}
{"variant": "THKH", "one-hybrid fitness for binding NBS DNA": "≤ 0.2"}
{"variant": "MNGR", "one-hybrid fitness for binding NBS DNA": "≤ 0.2"}
{"variant": "LCNI", "one-hybrid fitness for binding NBS DNA": "≤ 0.2"}
{"variant": "GLTY", "one-hybrid fitness for binding NBS DNA": "≤ 0.2"}
{"variant": "IPCR", "one-hybrid fitness for binding NBS DNA": "≤ 0.2"}
{"variant": "RWHY", "one-hybrid fitness for binding NBS DNA": 0.21}
{"variant": "PPSD", "one-hybrid fitness for binding NBS DNA": "≤ 0.2"}
{"variant": "PIYW", "one-hybrid fitness for binding NBS DNA": "≤ 0.2"}
{"variant": "GMRR", "one-hybrid fitness for binding NBS DNA": "≤ 0.2"}
{"variant": "VWGF", "one-hybrid fitness for binding NBS DNA": "≤ 0.2"}
{"variant": "YLMG", "one-hybrid fitness for binding NBS DNA": "≤ 0.2"}
{"variant": "GSPK", "one-hybrid fitness for binding NBS DNA": "≤ 0.2"}
{"variant": "SHNN", "one-hybrid fitness for binding NBS DNA": "≤ 0.2"}
{"variant": "QNKR", "one-hybrid fitness for binding NBS DNA": 0.504}
{"variant": "RDPC", "one-hybrid fitness for binding NBS DNA": "≤ 0.2"}
{"variant": "QKYN", "one-hybrid fitness for binding NBS DNA": "≤ 0.2"}
{"variant": "WPVW", "one-hybrid fitness for binding NBS DNA": "≤ 0.2"}
{"variant": "RQII", "one-hybrid fitness for binding NBS DNA": "≤ 0.2"}
{"variant": "QILG", "one-hybrid fitness for binding NBS DNA": "≤ 0.2"}
{"variant": "QGTD", "one-hybrid fitness for binding NBS DNA": "≤ 0.2"}
